Results published in PubChem BioAssay AID1347417 (National Center for Advancing Translational Sciences (NCATS), 2020).
Out of some 120,000 compounds screened, about 5,300 (4.4%) were called active. Inconclusive results, whose numbers are uncertain, are shown with a selection of clear calls. Calls come from the whole dose curve; as a rule, active = well fitted inhibition curve with a large enough effect; inconclusive = small, poorly fitted or top-dose-only effect; inactive = no such curve, though single readings can be large or run the other way. Where the call is inconclusive, the potency comes from a doubtful curve fit.

Test: qHTS Primary assay for Inhibitors of Plasmodium falciparum Dd2 growth in vitro; note: nearly all actives have a fitted effect of over 65% in size;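 for activity, negative = inhibition: plate controls were DMSO vehicle for no effect and reference drug for full effect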
Conditions: P. falciparum Dd2 growth, SYBR Green, 72 h; activity, negative = inhibition: at 28.9 µM (top of the series) unless noted; series mostly up to 28.9 µM
Outline: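 Infected erythrocytes (Dd2, 0.3% parasitemia, 2.5% hematocrit final) are added to compound in RPMI-1640/Albumax II medium, grown 72 h at 37C in low oxygen, then lysed with saponin/Triton-X containing SYBR Green and read by fluorescence.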
Potency is the fitted concentration of half-maximal effect; tags give direction and shape of the fitted curve.

Compound | Potency | activity, negative = inhibition | outcome
CC(=O)c1ccc(NC(=O)CC(c2cccs2)N2Cc3ccccc3C2=O)cc1 (configuration not stated) | inconclusive: 17.8 µM [inhibitor, single point] |  | 
CN1CCN(S(=O)(=O)c2ccc(F)cc2)CC12CCNC(=O)CC2 (configuration not stated) |  | inactive: -18.3% | 
CCCC(=O)N1Cc2ccccc2CC2(CCCN(Cc3ccccc3)C2)C1 (configuration not stated) | inconclusive: 10 µM [inhibitor, partial curve, poor fit] |  | 
O=C(NC1C[C@H]2CC[C@@H](C1)N2C(=O)CCCc1ccccc1)c1ccc(F)cc1 (some centres not stated) | active: 8.91 µM |  | 
Cc1ccc(CN2CCOCCNC(=O)[C@H]3CCCC[C@H]32)s1 | inconclusive: 17.8 µM [inhibitor, single point] |  | 
CCOc1ccc(-c2cc(-c3nc(-c4ccc(OC)c(OC)c4)no3)[nH]n2)cc1 | inconclusive: 17.8 µM [inhibitor, single point] |  | 
Cc1nnc(N2CCC(C(=O)NCCc3ccccc3)CC2)c2nn(-c3ccc(Cl)cc3)c(C)c12 | inconclusive: 10 µM [inhibitor, single point] |  | 
CC(C)(C)c1ccc(NC(=O)OC[C@H]2C[C@@H]3CCN2C[C@@H]3c2cc(C3CCCC3)nc(-c3ccncc3)n2)cc1 | active: 1 µM |  | 
CCOc1ccc(-n2nc3cc(C)c(NC(=O)c4cc(OCC)c(OCC)c(OCC)c4)cc3n2)cc1 | inconclusive: 0.0251 µM [inhibitor, full curve] |  | 
O=C1CN(C(=O)c2ccc(S(=O)(=O)N3CCCC3)cc2)C(c2ccccc2)c2cc(Br)ccc2N1 (configuration not stated) | inconclusive: 17.8 µM [inhibitor, single point] |  | 
O=C(Cc1ccccc1)NCC1CN(Cc2cccnc2)CC12CN(c1ccccc1)C2 (configuration not stated) | inconclusive: 5.62 µM [inhibitor, single point] |  | 
Cc1ccc(NC(=O)CN2CCSc3ccc(S(=O)(=O)N4CCCC4)cc32)cc1C | inconclusive: 7.94 µM [inhibitor, partial curve, poor fit] |  | 
Cc1cccc(CN2CCC3(CC2)OC(=O)N(Cc2cccnc2)C3(C)c2ccccc2)c1 (configuration not stated) | inconclusive: 1.58 µM [inhibitor, partial curve, poor fit] |  | 
Cc1nn(-c2ccccc2)c(C)c1Cc1nc(C(C)C)no1 |  | inactive: -2.88% | 
COc1cccc(CN2C(=O)CCCCC2C(=O)NCCCN2CCc3ccccc3C2)c1 (configuration not stated) | inconclusive: 0.447 µM [inhibitor, full curve, poor fit] |  | 
CC(C)Oc1ccc2c(NC(=O)c3cccnn3)nn(CC(F)(F)F)c2c1 | inconclusive: 12.6 µM [inhibitor, partial curve, poor fit] |  | 
Fc1ccc(-c2ccc3ncc(Nc4ccc5c(c4)OCCO5)n3n2)cc1 | inconclusive: 14.1 µM [inhibitor, single point] |  | 
CCC(C)N1CCN(C(=O)CCc2ccc3c(c2)CN(C(=O)NC(C)C)CCO3)CC1 (configuration not stated) | inconclusive: 11.2 µM [inhibitor, single point] |  | 
Cc1ncc2n1C(=O)N(C1CCN(C(=O)Nc3ccc(Cl)cc3)CC1)C2 | inconclusive: 0.891 µM [inhibitor, full curve] |  | 
O=C(NC[C@H]1OC[C@@H](NC2CCOCC2)[C@@H]1O)c1cccs1 |  | inactive: 15.5% [at 44.1 µM] | 
CCC1CN(C(=O)Nc2ccc(C)c(F)c2)c2ccccc2S1 (configuration not stated) |  | inconclusive: -178% [inhibitor] [at 0.594 µM] | 

Compound | Potency | activity, negative = inhibition | outcome
COCC(=O)NC1CCC12CCN(C(=O)C1(c3ccccc3)CC1)CC2 (configuration not stated) |  | inactive: -7.33% | 
CCc1nc2c(c(-c3ccc(Cl)cc3)n1)CN([S+](=O)([O-])c1cccc(C(F)(F)F)c1)CC2 | inconclusive: 3.16 µM [inhibitor, full curve, poor fit] |  | 
CCCCc1nc2cc(C(=O)N3CCCC3c3cc(C(C)C)on3)ccc2o1 (configuration not stated) | inconclusive: 8.91 µM [inhibitor, single point] |  | 
C[C@]1(CO)[C@H]2Cc3sc(NC(=O)c4ccc(F)cc4)nc3[C@@H](CC(=O)NC3CCCC3)[C@]2(C)CC[C@H]1O | inconclusive: 1.78 µM [inhibitor, partial curve, poor fit] |  | 
CC(C)C[C@@H]1N[C@H](C(=O)NCc2cccs2)Cc2cn(CC3CC3)c3cccc1c23 | inconclusive: 10 µM [inhibitor, partial curve, poor fit] |  | 
C=CCNC(=O)c1cccn2cncc12 | inconclusive: 8.91 µM [inhibitor, single point] |  | 
CCOc1ccc(C(=O)N2CCC(c3noc(-c4ccc(S(=O)(=O)N5CCCC5)cc4)n3)CC2)cc1 | inconclusive: 11.2 µM [inhibitor, single point] |  | 
CN(C1CCCCC1)S(=O)(=O)c1ccc2c(c1)c(=O)c(C(=O)N1CCN(c3ccccc3F)CC1)cn2C | active: 0.891 µM |  | 
CCc1c(-c2ccccc2)nc2ccccc2c1C(=O)NCc1ccc(C)cc1 | inconclusive: 15.8 µM [inhibitor, single point] |  | 
COc1cc(NC(=O)Cn2c(=O)n(Cc3ccco3)c(=O)c3oc4ccccc4c32)cc(OC)c1 | inconclusive: 10 µM [inhibitor, single point] |  | 
O=C(CSc1nnc(-c2ccc([N+](=O)[O-])cc2)o1)Nc1ccccc1 |  | inactive: 12.1% | 
O=C(c1ccccc1)N1CCC2(CN[S+](=O)([O-])c3cccnc3O2)C1 (configuration not stated) |  | inactive: 48.2% | 
CCOc1ccccc1C(=O)NC1CCN(c2cc(-c3cccs3)[nH]n2)C1 (configuration not stated) | inconclusive: 3.16 µM [inhibitor, single point] |  | 
N#Cc1ccc(S(=O)(=O)N2CC[C@H]3C(=O)NCCCCCCN(Cc4ccncc4)[C@@H]3C2)cc1 | inconclusive: 12.6 µM [inhibitor, single point] |  | 
COC(=O)c1ccc(Cn2nnc3c(=O)[nH]c(C4CCCN(S(=O)(=O)c5cccc(Cl)c5)C4)nc32)cc1 (configuration not stated) | inconclusive: 17.8 µM [inhibitor, single point] |  | 
NCc1cccc(-c2cc(F)cc(F)c2)c1 | active: 10 µM |  | 
Cc1ccc(OCc2nc(C3CCN(C(=O)c4noc(C)c4CN4CCCCC4)CC3)no2)cc1 | inconclusive: 1.58 µM [inhibitor, full curve] |  | 
CC(C)(C)c1ccc(C(=O)N2CCCCC2CCN2CCCCC2)cc1 (configuration not stated) | inconclusive: 20 µM [inhibitor, single point] |  | 
CC(C)N1C(=O)C2(CCCC2)C1C(=O)N1CCN(C2CCCCC2)CC1 (configuration not stated) | active: 10 µM |  | 
Cc1ccc(-c2cc(C(=O)N3CCC(c4nc(CCOCC5CC5)no4)C3)[nH]n2)cc1 (configuration not stated) |  | inactive: -20.2% | 
O=C(Nc1ccc(Br)cc1F)N1CCC2(CC1)Oc1ccccc1C(=O)N2Cc1ccccc1F | inconclusive: 17.8 µM [inhibitor, single point] |  | 

Compound | Potency | activity, negative = inhibition | outcome
N#Cc1ccccc1CN1CCCCCNC(=O)[C@@H]2CCC[C@@H]21 | inconclusive: 11.2 µM [inhibitor, single point] |  | 
COc1ccc2occ(CC(=O)Nc3ccc(S(=O)(=O)Nc4nc(C)cc(C)n4)cc3)c2c1 |  | inactive: 12.4% | 
O=C1CSC2(C(=O)N(Cc3ccccc3)c3ccccc32)N1c1ccc(Cl)cc1 (configuration not stated) | inconclusive: 8.91 µM [inhibitor, single point] |  | 
Cc1ccc(C)c(S(=O)(=O)N2CCC(n3cnnc3C(C)C)CC2)c1 | inconclusive: 6.31 µM [inhibitor, partial curve, poor fit] |  | 
COCC1CN(C)CC12CCN(S(=O)(=O)c1cccc(OC)c1)CC2 (configuration not stated) | inconclusive: 3.55 µM [inhibitor, full curve, poor fit] |  | 
Cc1cccc(Cl)c1NC(=O)N1CCC2(CC1)C(C(=O)O)CC(=O)N2C (configuration not stated) |  | inactive: -2.96% | 
Cc1cccc(N(C)C(=O)CSc2nc3ncccc3o2)c1 | inconclusive: 17.8 µM [inhibitor, single point] |  | 
CCCNC(=O)N1CCC(Oc2ccccc2)C1 (configuration not stated) | inconclusive: 7.08 µM [inhibitor, partial curve] |  | 
CCc1ccc(C(=O)c2cn(CC(=O)Nc3ccc(C)c(C)c3)c3ccccc3c2=O)cc1 | inconclusive: 17.8 µM [inhibitor, single point] |  | 
COc1ccc(CC(=O)N2CCCC3(Cc4ccccc4CN3C(=O)C3CCCC3)C2)cc1 (configuration not stated) | inconclusive: 10 µM [inhibitor, single point] |  | 
CC(C)(CNc1ccc(-c2nc(C3CC3)no2)cn1)N1CCOCC1 |  | inactive: -5.3% | 
Cc1cc(-c2ccnc(-c3nnc(C)n3CCc3ccccc3)c2)ccn1 |  |  | inactive [at 44.1 µM]
Cc1ccc(CN2CCc3nc(N4CCN(C)CC4)ncc3C2)s1 | inconclusive: 12.6 µM [inhibitor, single point] |  | 
Cc1nc(-c2ccc(C(C)N3CCCCC3)cc2)c(C#N)cc1C(=O)O (configuration not stated) | inconclusive: 14.1 µM [inhibitor, partial curve, poor fit] |  | 
O=C(Cc1ccc(F)cc1)N1CCC2(CC1)NC(=O)N(Cc1ccc(F)cc1)C2=O | inconclusive: 17.8 µM [inhibitor, single point] |  | 
COc1cccc(NC(=O)CCC[C@H]2NC[C@@H]3C[C@H]2CN(Cc2ccccc2)C3)c1 | inconclusive: 12.6 µM [inhibitor, single point] |  | 
COCCC(=O)N1CCC(Oc2nccnc2N2CCc3ccccc32)C1 (configuration not stated) | inconclusive: 15.8 µM [inhibitor, single point] |  | 
O=C(CC(F)(F)F)N1CCC(N2C(=O)C3(CCCC3)C2c2ccccc2)CC1 (configuration not stated) | active: 6.31 µM |  | 
Cc1ccc(C)c(CS(=O)(=O)c2cn(CC(=O)N(C(C)C)C(C)C)c3ccccc23)c1 | inconclusive: 10 µM [inhibitor, single point] |  | 
COc1ccc(CC(=O)N2Cc3ccccc3CC23CCCN(C(=O)CCN)C3)cc1 (configuration not stated) | inconclusive: 10 µM [inhibitor, single point] |  | 
